Experimental data taken from PubChem BioAssay AID686979 (National Center for Advancing Translational Sciences (NCATS), 2013).
Where “and” joins values, the source holds several entries; their conditions need not be identical. Equal values may be shown once. Out of some 420,000 compounds screened, about 50,000 (12%) were called active. The inconclusive results got no clear call from the source; some entries with a clear call stand among them for comparison. Calls follow the shape of the dose curve; as a rule, active = well fitted inhibition curve with a large enough effect; inconclusive = small, poorly fitted or top-dose-only effect; inactive = flat fitted curve, though single readings scatter. A potency beside an inconclusive call is a rough fit, not a confirmed value.
% is scaled to controls: 0 for no effect and ±100 for the full control effect; potency is read from the fitted curve at half-maximal effect; tags tell the direction and shape of the fitted curve.

Assay: qHTS for Inhibitors of human tyrosyl-DNA phosphodiesterase 1 (TDP1): qHTS in cells in presence of CPT; also: nearly all actives have a fitted effect of over 55% in size
Conditions: chicken DT40 Tdp1-/-;hTDP1 cells + 20 nM CPT, ATP luminescence, 48 h; activity change, negative = growth inhibition: at 46.2 µM (top of the series)
Procedure, shortened: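 Cell growth measured by CellTiter-Glo luminescence after a minimum 48 h, 37 C compound exposure with 20 nM CPT in Tdp1-knockout DT40 cells stably expressing hTDP1, seeded 400/well; qHTS titration format.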
For `CC1=C(C(=O)N(C(C)C)C(C)C)CC(CC(=O)NC2CC2)C(=O)N1Cc1ccccc1` (stereo not drawn), the Potency was “inactive”.
In the case of `Cc1cccc(OCCC(=O)Nc2ccc(C)c(S(=O)(=O)N3CCOCC3)c2)c1`, the Potency is reported as inconclusive: 25.9 µM [inhibitor, partial curve, poor fit].
For `Cc1cc2c(cc1C)C(c1ccccc1OC(C)C)CC(=O)N2` (stereo not drawn), the Potency was inconclusive: 11.6 µM [inhibitor, single point].
In the case of `Cc1noc(NS(=O)(=O)c2ccc(NC(=O)CCn3c(=O)oc4ccccc43)cc2)c1C`, the Potency is reported as “inactive”.
With `Cc1cc(OCC(=O)Nc2c(C(=O)c3ccccc3)oc3ccccc23)cc(C)c1Cl` the Potency was “inactive”.
For `CCC(=O)N1c2ccc(S(=O)(=O)CCC(=O)Nc3nccs3)cc2CC1C` (stereo not drawn), the Potency was inconclusive: 23.1 µM [inhibitor, partial curve, poor fit].
For `COc1ccc(NC(=O)CSc2ccc3c(c2)OCCO3)cc1OC`, the Potency was active: 20.6 µM.
With `COc1ccc(CC(=O)NCCCCc2ccccc2)cc1OC` the Potency was “inactive”.
In the case of `CC1(c2ccccc2Cl)NC(=O)N(CC(=O)Nc2ccc(N3CCCCC3)cc2)C1=O` (stereo not drawn), the Potency is reported as inconclusive: 20.6 µM [inhibitor, single point].
In the case of `CCC(C)c1ccc(N(C(=O)c2ccco2)C(C(=O)NC2CCCC2)c2cccnc2)cc1` (stereo not drawn), the Potency is reported as active: 18.4 µM.
For `Cc1nn(C)c2c1c(-c1ccccc1)cc(=O)n2Cc1ccccc1C#N`, the Potency was active: 23.1 µM.
For `COc1ccc(-c2ccc(C(=O)Nc3cccc(N(C)C)c3)c3occc23)c(C)c1`, the Potency was inconclusive: 29.1 µM [inhibitor, single point].
For `c1ccc(Nc2nc(-c3ccncc3)cs2)nc1`, the Potency was inconclusive: 16.4 µM [inhibitor, single point].
With `CCOC(=O)C1CCCN(c2c(C(=O)c3ccc(OCC)cc3)cnc3ccccc23)C1` (stereo not drawn) the Potency was active: 18.4 µM.
With `CCN1CCN(CCCNC(=O)c2cnn(-c3ccccc3Cl)c2C2CCN(C(=O)OC(C)(C)C)CC2)CC1` the Potency was inconclusive: 20.6 µM [inhibitor, single point].
In the case of `CCCCn1nnnc1C(c1cccc(OC)c1OC)N1CCN(C/C=C/c2ccccc2)CC1` (stereo not drawn), the Potency is reported as inconclusive: 23.1 µM [inhibitor, single point].
With `Cc1ccc(N=C2N=C(N)c3ccccc32)cc1C` the Potency was inconclusive: 29.1 µM [inhibitor, single point].
With `O=C(Nc1cccc2ncccc12)c1cc2ccccc2o1` the Potency was inconclusive: 23.1 µM [inhibitor, single point].
With `Cc1cc(NC(=O)CCS(=O)(=O)c2nc(-c3ccccc3)cc(C(F)(F)F)n2)no1` the Potency was active: 1.64 µM.
In the case of `COc1cc(NC(=S)NC(=O)CCc2ccccc2)cc(OC)c1`, the Potency is reported as inconclusive: 29.1 µM [inhibitor, single point].
With `Cc1ccccc1-c1cnc(C(O)c2cc(Cl)cc(Cl)c2)[nH]1` (stereo not drawn) the Potency was inconclusive: 29.1 µM [inhibitor, single point].
With `CC(C)Cc1ccc(CN2C(C)C(=O)N(Cc3cn(Cc4ccco4)nn3)CCS2(=O)=O)cc1` (stereo not drawn) the Potency was inconclusive: 29.1 µM [inhibitor, single point].
In the case of `COc1ccccc1C(=O)NCC1(c2ccccc2)CCCC1`, the Potency is reported as active: 16.4 µM.
For `COc1cccc(-c2ccc3c(c2)C2CC3CCN2C(=O)c2ccc(Cl)cc2)c1` (stereo not drawn), the Potency was inconclusive: 29.1 µM [inhibitor, single point].
In the case of `CCOc1ccc(-n2c(SCC(N)=O)nnc2-c2ccco2)cc1`, the Potency is reported as inconclusive: 29.1 µM [inhibitor, single point].
In the case of `CCN(CC(=O)Nc1ccc(C(=O)Nc2ccc(OC)cc2)cc1)Cc1nc2ccccc2c(=O)[nH]1`, the Potency is reported as inconclusive: 23.1 µM [inhibitor, single point].
For `COc1cccc(-c2nc3ccccc3c(=O)o2)c1`, the Potency was inconclusive: 29.1 µM [inhibitor, single point].
With `Cc1ccc(C(O)c2ncc(-c3ccc(Cl)cc3)[nH]2)cc1F` (stereo not drawn) the Potency was inconclusive: 29.1 µM [inhibitor, single point].
In the case of `Cc1cc(F)ccc1NC(=O)C1CCN(C(=O)c2cnn(-c3ccccc3)c2-n2cccc2)CC1`, the Potency is reported as inconclusive: 10.3 µM [inhibitor, partial curve].
With `Oc1ccc(Cl)cc1C1=NNC(c2cccs2)C1` (stereo not drawn) the Potency was inconclusive: 20.6 µM [inhibitor, single point].
For `O=C(CNC(=O)c1ccccc1F)Nc1ccc2c(c1)CCC2`, the Potency was “inactive”.
With `CN(C)CCCNC(=O)/C=C/c1ccc(OCc2c(F)cccc2Cl)cc1` the Potency was inconclusive: 29.1 µM [inhibitor, single point].
With `Cc1cccc(C)c1NC(=O)Cn1nnc(C(=O)Nc2c(C)cccc2C)c1N` the Potency was “inactive”.
In the case of `Cc1cc(NC(=O)CSc2nnc3c(C)cc4c(C)ccc(C)c4n23)no1`, the Potency is reported as active: 1.16 µM.
With `CCCCc1nn2c(=O)cc(COC(=O)c3cccc(Cl)c3)nc2s1` the activity change, negative = growth inhibition was inconclusive: -30.2% [inhibitor].
With `Cc1cc(Cl)c(S(=O)(=O)N2CCN(c3ccccn3)CC2)cc1OCC(=O)NC1CCCCC1` the Potency was inconclusive: 29.1 µM [inhibitor, single point].
With `O=C(c1ccccc1)c1cn(Cc2ccc(F)cc2)c2ccccc2c1=O` the Potency was inconclusive: 29.1 µM [inhibitor, single point].
In the case of `O=C(CCC1N=C2c3ccccc3N=C(SCc3cccc(F)c3)N2C1=O)NCCc1ccccc1` (stereo not drawn), the Potency is reported as active: 20.6 µM.
For `COC(C(=O)Nc1ccc(S(=O)(=O)N2CCCCC2)cc1)c1ccccc1` (stereo not drawn), the Potency was inconclusive: 20.6 µM [inhibitor, partial curve, poor fit].
With `COc1ccc(-c2cc(C(=O)Nc3ccc(C)cc3)no2)cc1` the Potency was inconclusive: 4.11 µM [inhibitor, single point].
For `O=S(=O)(c1cccc2nsnc12)N1CCN(c2ncccn2)CC1`, the Potency was inconclusive: 25.9 µM [inhibitor, partial curve, poor fit].
With `CCc1ccc(/C=C/C(=O)c2ccc(N3CCOCC3)cc2)cc1` the Potency was inconclusive: 29.1 µM [inhibitor, single point].
For `Cc1cnc(N=Nc2ccccc2)[nH]1`, the Potency was inconclusive: 18.4 µM [inhibitor, single point].
With `O=C(CN1CCOCC1)NCc1ccc(F)cc1` the Potency was “inactive”.
For `NC(Cc1ccc(C(F)(F)F)cc1)c1csc(Nc2ccc(C(=O)c3ccccc3)cc2)n1` (stereo not drawn), the Potency was inconclusive: 29.1 µM [inhibitor, single point].
For `N=C1/C(=C\c2ccc(Br)o2)C(=O)N=C2SC(CC(=O)N3CCCCC3)=NN12`, the Potency was active: 6.51 µM.
With `O=C(c1ccccc1S(=O)(=O)NCC(O)COc1ccc([N+](=O)[O-])cc1)N1CCCCC1` (stereo not drawn) the Potency was inconclusive: 1.3 µM [inhibitor, partial curve].
In the case of `Cc1ccc(OCC(=O)NCCCNC(=O)c2ccncc2)cc1C`, the Potency is reported as “inactive”.
For `COc1ccc(Oc2ncc3ncc(=O)n(C[C@H]4CCCO4)c3n2)cc1`, the activity change, negative = growth inhibition was inconclusive: -38.4% [inhibitor].
For `C=CCn1c(N)cc(=O)nc1SC(CC)C(=O)Nc1ccc(C(C)=O)cc1` (stereo not drawn), the Potency was “inactive”.
With `CCOC(=O)c1c(C)[nH]c(CCC(=O)NCc2cccc(C)c2)c1C` the Potency was inconclusive: 29.1 µM [inhibitor, single point].
For `O=C(COc1ccc2ccccc2c1)N1CCN(C(=O)c2cccs2)CC1`, the Potency was inconclusive: 25.9 µM [inhibitor, partial curve].
In the case of `O=C(Nc1cc(C(F)(F)F)ccc1N1CCOCC1)c1ccc(F)cc1`, the Potency is reported as “inactive”.
With `COCCCn1c(=N)c(C(=O)NCc2cccnc2)cc2c(=O)n3cccc(C)c3nc21` the Potency was “inactive”.
In the case of `CN1C(=O)Cc2cc(S(=O)(=O)CCC(=O)Nc3ccc(Cl)c(C(F)(F)F)c3)ccc21`, the Potency is reported as active: 23.1 µM.
In the case of `O=c1c(Cl)c(N2CCN(c3ccc(F)cc3)CC2)cnn1C12CC3CC(CC(C3)C1)C2`, the Potency is reported as inconclusive: 23.1 µM [inhibitor, single point].
For `c1ccc(CNc2ncnc3c2cnn3Cc2ccccc2)cc1`, the Potency was active: 13 µM.
For `CCC(=O)N1CCN(c2ccc(Cl)cc2NC(=O)c2ccc3c(c2)OCCO3)CC1`, the Potency was active: 16.4 µM.
In the case of `CC(=O)Nc1ccc(SC[C@H](Cc2ccccc2)N2CC[C@@H](C)CCC2=O)cc1`, the Potency is reported as inconclusive: 35.5 µM [inhibitor, single point] and inconclusive: 20.6 µM [inhibitor, single point].
For `COc1ccc(C2NC(=S)N3C(c4ccc(OC)cc4)NC(=S)N23)cc1` (stereo not drawn), the Potency was inconclusive: 23.1 µM [inhibitor, single point].
In the case of `O=C(Nc1ccccc1)N1CC[C@@]2(CCCN(C(=O)c3ccco3)C2)C1`, the Potency is reported as “inactive”.
For `COc1ccc(NC(=O)c2oc3ccccc3c2NC(=O)Cc2coc3cc(C)ccc23)cc1`, the Potency was inconclusive: 14.6 µM [inhibitor, single point].
For `N#CC1=C(SCC(=O)NC23CC4CC(CC(C4)C2)C3)NC(=O)C(C#N)C12CCCCC2` (stereo not drawn), the Potency was active: 18.4 µM.
In the case of `Cc1ccc(S(=O)(=O)N(CC(=O)Nc2ccc(C)cc2C)C(=O)N2CCN(C)CC2)cc1`, the Potency is reported as “inactive”.
In the case of `O=C(NCCCN1CCN(c2cccc(Cl)c2)CC1)c1cccc(N2CCCC2=O)c1`, the Potency is reported as inconclusive: 16.4 µM [inhibitor, single point].
With `COc1ccc2oc(-c3ccc(C)c(NC(=O)c4ccc5c(c4)OCCO5)c3)nc2c1` the Potency was inconclusive: 20.6 µM [inhibitor, single point].
In the case of `COc1ccc(-n2ncc(C(=O)Nc3ccc4c(c3)OCO4)c2C2CCN(C(=O)OC(C)(C)C)CC2)cc1`, the Potency is reported as inconclusive: 29.1 µM [inhibitor, single point].
With `CSc1c(CC(=O)Nc2ccccc2Cl)n(Cc2ccccc2)c2ccccc12` the Potency was inconclusive: 29.1 µM [inhibitor, partial curve, poor fit].
